From paper PMC4336329 (PLoS ONE, 2015)
The campaign covered roughly 310,000 compounds. About 14,000 (4.5%) showed an effect of 50% or more. The effect is printed as a negative number. Some of the results follow.

Target: human ether-à-go-go-related gene (hERG) potassium channel (human, UniProt Q12809)
Test: primary screen, population patch clamp on CHO cells stably expressing hERG
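Further: peak tail current of the secondary pulse compared with the same well before compound.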

Chain of human ether-à-go-go-related gene (hERG) potassium channel (Q12809 whole entry, looked up): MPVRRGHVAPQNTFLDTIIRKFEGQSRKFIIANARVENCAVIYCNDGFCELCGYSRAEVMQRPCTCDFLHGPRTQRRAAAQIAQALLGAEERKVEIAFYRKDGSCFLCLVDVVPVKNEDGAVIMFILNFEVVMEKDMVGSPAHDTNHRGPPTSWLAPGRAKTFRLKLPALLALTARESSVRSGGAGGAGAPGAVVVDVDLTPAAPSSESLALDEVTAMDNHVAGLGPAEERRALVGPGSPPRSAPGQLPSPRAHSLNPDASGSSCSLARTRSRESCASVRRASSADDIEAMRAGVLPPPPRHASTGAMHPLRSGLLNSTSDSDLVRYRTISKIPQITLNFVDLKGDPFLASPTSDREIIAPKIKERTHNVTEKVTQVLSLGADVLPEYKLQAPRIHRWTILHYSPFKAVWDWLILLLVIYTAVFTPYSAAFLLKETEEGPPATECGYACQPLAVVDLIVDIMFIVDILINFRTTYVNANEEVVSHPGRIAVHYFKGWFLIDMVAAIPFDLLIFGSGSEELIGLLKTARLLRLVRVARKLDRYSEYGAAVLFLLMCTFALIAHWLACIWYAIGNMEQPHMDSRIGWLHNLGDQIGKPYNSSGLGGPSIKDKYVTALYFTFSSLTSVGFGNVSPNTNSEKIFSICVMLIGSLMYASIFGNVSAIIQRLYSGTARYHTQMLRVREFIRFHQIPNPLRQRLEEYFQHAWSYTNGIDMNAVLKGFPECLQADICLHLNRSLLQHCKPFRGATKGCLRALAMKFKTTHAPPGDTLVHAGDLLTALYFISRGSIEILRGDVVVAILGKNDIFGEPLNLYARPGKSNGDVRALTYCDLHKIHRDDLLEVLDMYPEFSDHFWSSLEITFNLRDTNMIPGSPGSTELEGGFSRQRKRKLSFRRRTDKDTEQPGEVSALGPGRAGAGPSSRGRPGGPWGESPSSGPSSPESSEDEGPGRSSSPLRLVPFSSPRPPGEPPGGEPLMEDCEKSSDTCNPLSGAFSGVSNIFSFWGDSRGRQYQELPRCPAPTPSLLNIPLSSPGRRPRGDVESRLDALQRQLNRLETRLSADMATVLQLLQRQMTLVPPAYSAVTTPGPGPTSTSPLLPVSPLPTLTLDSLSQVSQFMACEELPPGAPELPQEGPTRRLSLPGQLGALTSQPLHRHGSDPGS

Row | SMILES | hERG current change (%, negative = inhibition) at 10uM [%]
1 | COc1cccc(CN2C[C@]34C=C[C@@H](C[C@@H]3S2(=O)=O)O4)c1 | -0.728
2 | COc1cccc(-c2c(C#N)c(SC)nc3cc(C)nn23)c1 | 0.381
3 | Cc1cc(C(F)F)n2nc(C(=O)Nc3ccccc3Br)nc2n1 | -7.89
4 | O=C(NC1CCCCC1)C(c1ccccc1)N(Cc1ccco1)C(=O)c1csnn1 (stereo not shown) | -25.6
5 | COC(=O)c1ccc(NC(=O)CSc2nc(C)cc(=O)[nH]2)cc1 | 14.4
6 | CCOC(=O)c1cnc(SCC(=O)OCC(=O)NC2CCS(=O)(=O)C2)nc1N (stereo not shown) | 10.9
7 | Cc1ccccc1NC(=O)NCCCN1CCN(c2ccccc2)CC1 | -50.7
8 | Cc1ccc(C)c(-n2c(-c3csc(C)c3C)n[nH]c2=S)c1 | 11.7
9 | N#Cc1c(SCC(=O)Nc2ccccc2C(F)(F)F)sc2c(O)cc(=O)[nH]c12 | -6.01
10 | CC(=O)O[C@H]1C[C@@]2(C)[C@@H](C[C@@H](O)[C@H]3[C@@]4(C)CC[C@@H](O)[C@@H](C)[C@@H]4CC[C@@]32C)/C1=C(\CCC=C(C)C)C(=O)[O-].[Na+] | -2.41
11 | COCCCNC(=O)c1cccc(OC)c1OC | 9.02
12 | Cc1c(NC(=O)CN2C(=O)NC3(CCCCC3C)C2=O)cccc1[N+](=O)[O-] (stereo not shown) | -18.7
13 | CSc1nc(-c2ccccc2)c(C#N)c(=O)n1C | -18.4
14 | COc1ccc(CN2C(=O)c3ccccc3C(/C=N\OCc3ccc(C)cc3)C2=O)cc1 (stereo not shown) | 8.84
15 | Cc1ccc(C)c(NC(=O)CCC(=O)N/N=C/c2ccc[nH]2)c1 | -4.41
16 | O=C(COc1ccccc1)Nc1ccc(Cl)c(-c2nc3ncccc3o2)c1 | 12.4
17 | CCC1CCCCN1CCCNC(=O)c1ccc(CS(=O)(=O)c2ccccc2OC)o1 (stereo not shown) | 6.46
18 | CC1(C)C2CCC(C2)C1C/C=N/NC(N)=S (stereo not shown) | 0.967
19 | COc1ccc(S(=O)(=O)NCC2CCCN(Cc3ccc(OC)cc3F)C2)cc1 (stereo not shown) | -42
20 | Cc1ccc(S(=O)(=O)N2CCN(C(=O)c3ccc(Br)o3)CC2)c(C)c1 | -55
21 | CSc1nnc(-c2ccc(S(=O)(=O)N3CCCC3)cc2)n1C | -41.6
22 | COc1ccc(NC(=O)C2CCCN(S(=O)(=O)c3c(C)n[nH]c3C)C2)cc1 (stereo not shown) | -1.21

Row | SMILES | hERG current change (%, negative = inhibition) at 10uM [%]
23 | COc1ccccc1-n1nnnc1SCC(=O)NC1CCCC1 | 9.18
24 | Cc1ccc(C(NC(N)=O)c2ccccc2C)cc1 (stereo not shown) | -8.2
25 | COc1ccc(NC(=O)N2CCOCC2)cc1OC | 10.9
26 | Cc1ccc(C(=O)COC(=O)CCN2C(=O)C3C4CCC(C4)C3C2=O)cc1[N+](=O)[O-] (stereo not shown) | -9.49
27 | Cc1cccc(-n2nnc(C(=O)NCc3ccc4c(c3)OCO4)c2N)c1 | 1.39
28 | COc1cc2nc(-c3cccs3)oc(=O)c2cc1OC | 4.77
29 | Sc1oc(-c2ccccc2)cc1C=Nc1ccccc1 | -16.8
30 | CCOc1ccccc1OCCCCN1CCCC1 | -17.2
31 | O=C(COc1ccc(Br)cc1)N1CCN(c2ccc([N+](=O)[O-])c(N3CCCCC3)c2)CC1 | -14.1
32 | O=C1/C(=N\S(=O)(=O)c2cccs2)C([n+]2ccccc2)=C([O-])c2ccccc21 | 33.6
33 | CCOCC(=O)Nc1nnc(C2CCCCC2)s1 | 8.38
34 | O=S(=O)(c1ccc(NCCc2c[nH]c3ccccc23)nc1)N1CCOCC1 | -18.5
35 | CC(=O)c1cc(CN2CCC(C(=O)Nc3cccc(-c4cscn4)c3)CC2)cs1 | -30.5
36 | CCOc1ccc(NCc2ccccc2OCc2cccc(F)c2)cc1.Cl | -3.71
37 | CC(C)Oc1ccc(CSC(=N)N)cc1.Cl | -15.2
38 | COc1ccc2cc(C(=O)NCCCN3CCCC3=O)[nH]c2c1 | 11.2
39 | CC(=O)Nc1cccc(S(N)(=O)=O)c1C | 18.5
40 | COc1ccc(-c2cc(C(=O)N3CCOCC3)c3ccccc3n2)cc1OC | -22.7
41 | NC(=O)CC12CC3CC(C1)CC(CC(N)=O)(C3)C2 | -0.0946
42 | CCOC(=O)[C@H]1[C@H]2COc3ccc(Br)cc3[C@@H]2N2C(=O)c3ccc(F)cc3NC(=O)[C@@]12C | -1.78
43 | Cc1ccc(C)c2c1c1ccccc1n2C | 0.543
44 | COc1cc(CNC(C)C23CC4CC(CC(C4)C2)C3)cc(OC)c1OC.Cl (stereo not shown) | 4.56

Row | SMILES | hERG current change (%, negative = inhibition) at 10uM [%]
45 | COc1ccc(C(=O)CC(=O)C(=O)Nc2ccc(C)cc2Cl)cc1 | 2.73
46 | Cc1cc(C)n2nc(SCC(=O)N/N=C/c3ccc(F)cc3)nc2n1 | -8.76
47 | COc1ccccc1CSc1ncc(-c2ccc([N+](=O)[O-])cc2)[nH]1 | -13.8
48 | CSc1ccc(C2(O)Cc3cccc[n+]3C2c2ccccc2)cc1.[Br-] (stereo not shown) | -2.54
49 | CN(C)CCN(Cc1cc2cc3c(cc2nc1Cl)OCO3)C(=O)c1ccco1 | -6.26
50 | Cc1ccc[n+](CC(=O)c2ccc(NC(=O)c3ccccc3)cc2)c1C | 19.4
51 | COc1ccc(NC(=O)C2CC(=O)N/C(=N/N=C/c3ccco3)S2)cc1 (stereo not shown) | -3.54
52 | Cc1cc(OCC(=O)N2CCCCCC2)ccc1[N+](=O)[O-] | -4.46
53 | Cc1ccc(-n2nc3c(=O)n(C(C)C(=O)NCc4ccc(Cl)cc4)nc(C)c3c2C)cc1 (stereo not shown) | -63.5
54 | O=C(CSc1nnnn1-c1ccccc1)Nc1ncc2c(n1)CC(c1ccco1)CC2=O (stereo not shown) | -19
55 | COCc1cc(C)nc(N2CCNCC2)c1C#N | 7.28
56 | O=C(c1ccc(OCC2CCCO2)cc1)N1CCN(c2ccccc2)CC1 (stereo not shown) | -2.93
57 | CCO[C@H]1OC(C(=O)Nc2ccccc2)=C[C@@H](c2coc3ccccc3c2=O)[C@@H]1CCCO | -28.5
58 | CC(C)(C)OC(=O)NCCc1n[nH]c(=S)o1 | 14.7
59 | COc1ccc(S(N)(=O)=O)cc1C(=O)OCCCC(=O)c1ccccc1 | -8.68
60 | CCN(CC)CCNC(=O)c1ccc(NC(=O)c2cn(-c3ccc(F)cc3)nc2-c2cccc(OC)c2)cc1 | -31.3
61 | O=c1[nH]c(-c2ccccn2)nc(C(F)(F)F)c1Br | 0.682
62 | COc1ccc(-c2coc3c(CN4CCOCC4)c(O)ccc3c2=O)cc1 | -21.1
63 | CCCCN(c1ccc(C(=O)OC)cc1)S(=O)(=O)c1ccccc1 | -9.02
64 | CCOCCCNC(=O)C(NC(=O)Cc1cccs1)c1ccccc1 (stereo not shown) | 3.89
65 | CC(=O)Nc1ccc(C(=O)CSc2nnnn2C(C)C)cc1 | 16.7
66 | CC(c1ccccc1)n1cnc2ccccc2c1=O (stereo not shown) | 18.5

Row | SMILES | hERG current change (%, negative = inhibition) at 10uM [%]
67 | Cn1nc(C(F)(F)F)c(C(=O)Nc2ccc(Cl)cc2)c1Cl | -22.1
68 | O=C(Nc1ccc(OCC(=O)N2CCOCC2)cc1)Nc1cccc(Cl)c1 | -7.18
69 | COC(=O)CNc1nc(-c2ccccc2F)nc2ccccc12 | 3.08
70 | CC1(C)CC(c2nc(-c3ccc(Cl)cc3)cs2)CCS1.Cl (stereo not shown) | 7.39
71 | COC(=O)c1cccc(Nc2nc(-c3cccnc3)nc3ccccc23)c1 | -2.49
72 | Nc1ccc(Cl)cc1C(=O)OCC(=O)NC1CCS(=O)(=O)C1 (stereo not shown) | 11.8
73 | COc1ccc(C(=O)NNc2cc(C)nc(NNC(=O)c3ccc(OC)cc3)n2)cc1 | 7.94
74 | Cc1cc(NCCc2ccccc2F)n2ncnc2n1 | -1.21
75 | CC(NC(=O)C(=O)N1CCOCC1)C(c1cccs1)N1CCN(c2ccccc2F)CC1 (stereo not shown) | -13.7
76 | Cc1ccc(Oc2nc3ccccn3c(=O)c2/C=C(\C#N)C(=O)NC2CCS(=O)(=O)C2)c(C)c1 (stereo not shown) | 3.83
77 | COc1ccc(C(CNC(=O)c2ccc(S(=O)(=O)N(C)C)cc2)N2CCCCC2)cc1 (stereo not shown) | -9.82
78 | COc1cccc(COC(=O)C2CC(=O)N(Cc3ccco3)C2)c1OC (stereo not shown) | 12.3
79 | CCCOc1c(Br)cc(C(=O)OCC(=O)NC2CC2)cc1OC | 8.36
80 | CCOC(=O)Nc1ccccc1C(=O)N1CCOCC1 | 5.87
81 | Cc1cc(C)cc(N2CC(C(=O)OCC(=O)Nc3cc(C)on3)CC2=O)c1 (stereo not shown) | 19.1
82 | CC(C)(C)SCCNC(=O)CN1C(=O)c2ccccc2S1(=O)=O | -5.6
83 | Nn1c(SCC(=O)NC(=O)NC2CCCC2)nnc1-c1ccccc1F | -13.3
84 | N#Cc1c(C(F)(F)F)cc(-c2ccccc2)n(N)c1=O | 13.9
85 | CC(C)c1onc(C(=O)N2C(C)CCCC2C)c1[N+](=O)[O-] (stereo not shown) | 18.8
86 | CN(C)C(=O)c1nnc(Cc2ccc(Cl)cc2)o1 | 15.9
87 | O=C(Nc1c2c(nn1-c1ccccc1)CS(=O)(=O)C2)c1ccc2c(c1)OCO2 | 3.47
88 | C=CCSc1ncccc1C(=O)NCc1ccc(C)cc1 | -10.3
